In PubChem BioAssay AID1508624 (National Center for Advancing Translational Sciences (NCATS), 2021):
Among all 48,000 compounds or so, about 120 (0.25%) were called active. Not shown: some 4% with an inconclusive outcome. Calls come from the whole dose curve; as a rule, active = well fitted activation curve with a large enough effect; inconclusive = small, poorly fitted or top-dose-only effect, or another doubt; inactive = no such curve, though single readings can be large or run the other way. This is one part of the list.

Test: Primary qHTS for Identification of Small Molecule Activators of Huntingtin-Antisense Promoter Activity; note: nearly all actives have a fitted effect of over 55% in size
Details: HEK293 HTT-AS promoter firefly luciferase reporter (activity 0% = vehicle and -100% = no light), 24 h; series mostly up to 57.5 µM; activity change, positive = activation: at the top concentration
Procedure, shortened: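 Luminescence was read after Dual-Glo reagent and a 10 min room-temperature incubation. Values were normalized to vehicle (0% activity) and zero RLU (-100% activity). Reporter HEK293 cells had been exposed to compounds (up to 57.5 uM final) for 24 h.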

Activity change, positive = activation, inactive:
Cc1ccc(-c2cc(-c3ccc4c(c3)NC(=O)CO4)nc3c2COc2ccccc2-3)cc1 -7.63%
COc1ccc2c(c1)c1c(c(=O)n(-c3ccc(F)c(Cl)c3)c(=O)n1Cc1cccc(C)c1)n2C -9.78%
CCOc1ccc2c(c1)c(=O)c(C(=O)c1ccccc1)cn2Cc1ccccc1 -0.452%
Cc1ccc(C(=O)Nc2c(C(=O)NC(C)(C)C)oc3ccccc23)cc1 -13.5%
CCCS(=O)(=O)c1nc(S(=O)(=O)c2ccc(C)cc2)c(N(CC)CC)s1 -12.8%
CCOC(=O)c1ccc(NC(=O)CSc2c(C(C)C)cnc3c2c(=O)n(C)c(=O)n3C)cc1 -17.1%
Cc1cc(C)c2c(CC(=O)Nc3ccc(F)cc3)coc2c1 -13.7%
Cc1ccc(-n2nc(C)c3nc(CCC(=O)Nc4cccc(C)c4C)c(=O)n(C)c32)cc1 -10.5%
COc1ccc(CNC(=O)Cn2nc3c(cc2=O)CCCC3)cc1 -5.48%
Cc1cccc(N2C(=O)N(Cc3cc(=O)n4ccccc4n3)c3ccccc3S2(=O)=O)c1 -17.5%
Cc1nnc(NC(=O)CSc2nc3c([nH]c4ccccc43)c(=O)n2-c2ccc(Cl)cc2)s1 -33.3%
Cc1ccc2[nH]c(=O)c3cc(C(=O)N(C)c4ccc(Br)cc4)sc3c2c1 -5.81%
CC(=O)Nc1cc(C(=O)NCc2ccccc2Cl)ccc1Sc1ccc(F)cc1 -17.2%
Cc1ccc(NC(=O)c2cc(S(=O)(=O)N3CCCCC3)c[nH]2)cc1N(C)C -1.29%
Cc1cc(C)cc(NC(=O)c2cc(S(=O)(=O)NCCC3=CCCCC3)ccc2F)c1 -22%
Cc1cccc(C(=O)Nc2ccc3oc(-c4cccc5c(Br)cccc45)nc3c2)c1 1.25%
CCc1ccc(NC(=O)C2CCN(c3nc(-c4ccc(OC)cc4)no3)CC2)cc1 -48.3%
CCOc1ccc2nc(N3CCN(C(=O)c4ccc5c(c4)CCCC5)CC3)sc2c1 -9.29%
Cc1cc(OCC(=O)Nc2ccc(C(=O)OC3CCCCC3)cc2)cc(C)c1Cl -13.9%
COc1ccc(CCNCc2c(C(=O)O)c(C)n(Cc3c(F)cccc3Cl)c2C)cc1OC -7.44%
COc1ccc2c(c1)CC(C(=O)NCc1ccc(F)cc1)CO2 (stereo not drawn) -11%
Clc1ccc2c(c1)Nc1ccccc1S2 -1.04%
COc1cc(C(=O)NCCCc2nc3ccccc3n2CC(C)C)cc(OC)c1OC -13.9%
O=C(C1CCN(S(=O)(=O)c2ccc(Br)s2)CC1)N1CCN(c2cccc(Cl)c2)CC1 -29.6%
Cc1ccc(Sc2c(C)nn(C(=O)COc3ccccc3Br)c2C)cc1 -41.7%
CCOc1ccc(CCNC(=O)c2sc3nc4n(c(=O)c3c2C)CCCC4)cc1OCC -5.2%
CCOC(=O)c1ccc(NC(=O)CCn2c(=O)c3cccn3c3ccccc32)cc1 -2.7%
COc1ccc(-n2c(SCC(=O)Nc3ccc(Cl)c(C)c3)nc3n[nH]c(C)c3c2=N)cc1 -29.5%
NC(=O)c1c(NC(=O)c2nc(SCc3ccccc3F)ncc2Cl)sc2c1CCCC2 13.5%
CCOC(=O)c1c(NC(=O)c2ccc(S(=O)(=O)N3CCC(C)CC3)cc2)sc2c1CCN(C)C2 -61.3%
CCOC(=O)c1sc2ncn(CC(=O)Nc3ccc(N(C)C)cc3)c(=O)c2c1C -11%
Cc1cc(C)cc(-n2ccnc2SCC(=O)Nc2nnc(C)s2)c1 -34.3%
O=C(Nc1nc2ccc(S(=O)(=O)N3CCCC3)cc2s1)c1cccc(F)c1 -3.02%
COc1ccc(OC)c(CNC(=O)c2nn(-c3ccc(OC)c(Cl)c3)c(=O)c3c2c2ccccc2n3C)c1 -3.53%
CCCCn1cc(S(=O)(=O)c2ccc(C)c(C)c2)c(=O)c2cc(F)c(N3CCCC(C)C3)cc21 (stereo not drawn) -4.16%
CCS(=O)(=O)N1CCc2cc(C(=O)Nc3ccc(OC)c(Cl)c3)ccc21 -22.5%
CCOc1ccc2nc(N3CCCC(C(=O)Nc4c(C)cccc4C)C3)sc2c1 (stereo not drawn) 29.5%
COC(=O)c1nc2n(n1)C(c1cccc(Cl)c1)C(C(=O)Nc1ccccc1OC)=C(C)N2 (stereo not drawn) -8.74%
Cc1cccc(C)c1NC(=O)C(NS(=O)(=O)c1ccc2c(c1)CCC(=O)N2)c1ccccc1 (stereo not drawn) 14.2%
Cc1c2cnn(-c3ccccc3)c(=O)c2c(C)n1CCCC(=O)Nc1cc(F)ccc1F -14.1%
CCc1ccc(CNC(=O)CN2C(=O)c3cccnc3Oc3ccc(Cl)cc32)cc1 -22.2%
O=C(CSc1nc2ccccc2nc1Cc1ccc(Cl)cc1)N1CCc2ccccc21 -7.3%
CCN(c1cccc(C)c1)S(=O)(=O)c1nnc(NC(=O)C2CCCCC2)s1 -11.2%
O=C(CSC1=Nc2ccccc2C2=NC(CC(=O)NC3CCCCC3)C(=O)N12)Nc1ccc(F)cc1 (stereo not drawn) -23.8%
CCOc1ccc(NC(=O)CSc2ncc3c(n2)-c2ccc(Cl)cc2N(Cc2ccccc2)S3(=O)=O)cc1 -0.46%
COc1ccc(-c2nc3sc(CCNC(=O)c4cc(OC)c(OC)c(OC)c4)c(C)n3n2)cc1 2.63%
COc1ccc(C)cc1NC(=O)c1oc2ccc(S(=O)(=O)N3CCCCC3)cc2c1C 15.3%
Cc1ccc(C)c(N2CCN(S(=O)(=O)c3cc(Br)cc4c3N(C(=O)C3CC3)CC4)CC2)c1 -3.28%
CCOc1ccc(C2c3[nH]c4ccccc4c3CCN2C(=O)CCc2ccccc2)cc1 (stereo not drawn) -23.5%
Cn1c(=O)c(=O)n(C)c2cc(N3CCOCC3)c(NS(=O)(=O)c3ccc(Cl)cc3)cc21 -13.4%
COC(=O)c1scc(-c2ccc(C)cc2)c1S(=O)(=O)Nc1cc(Cl)ccc1C -35.6%
CCc1ccc(S(=O)(=O)c2cn(CC(=O)Nc3ccc(C)cc3)c3ccccc3c2=O)cc1 -12.9%
CCOC(=O)c1[nH]c2c(c1Cc1ccccc1)C(=O)CC(c1ccc(Cl)cc1)C2 (stereo not drawn) -21.1%
COc1cccc(C(c2sc3nc(-c4ccco4)nn3c2O)N2CCC(O)CC2)c1 (stereo not drawn) -0.321%
CCOc1ccc(CCNC(=O)c2ccc3c(Cl)c4c(nc3c2)CCCC4)cc1 -22.6%
CCOC(=O)c1ccc(NC(=O)c2c(NC(C)=O)sc3c2CCC(C)C3)cc1 (stereo not drawn) -33.6%
O=S(=O)(NCCc1nnc2ccc(SCc3ccc(Cl)cc3Cl)nn12)c1ccccc1 -5.32%
CCOc1ccccc1NC(=O)c1sc2nc3n(c(=O)c2c1C)CCCCC3 -7.07%
Cc1ccc(-c2nc3scc(CCNC(=O)Cc4ccc(Cl)cc4)n3n2)cc1 -25.4%
CCOc1ccc(N(C(=O)CC(C)C)S(=O)(=O)c2ccc3c(c2)oc(=O)n3C)cc1 -46.7%
COc1ccc(CCNC(=O)CCCn2c(=O)c3ccccc3n(Cc3cccc(Cl)c3)c2=O)cc1OC -34.5%
Nc1nc2ccccc2n1Cc1ccc(F)cc1 -19.3%
COc1ccc(S(=O)(=O)n2nc(C)c(S(=O)(=O)N3CCC(C)CC3)c2C)cc1C -5.49%
CCC(=O)Nc1c(C(=O)N2CCN(c3ccc(F)cc3)CC2)oc2ccccc12 -34.2%
CCN(CC)c1ccc(NS(=O)(=O)c2ccc(-c3cnc(C4CC4)o3)cc2)c(C)c1 -31.1%
CCCn1c(SCc2nc(-c3ccc(OC)cc3OC)no2)nnc1-c1ccc(Cl)cc1 -36.6%
Cc1cccc(C)c1NC(=O)CSc1nc(-c2ccccc2)nc2c1Cc1c(CO)cnc(C)c1O2 -5.48%
CCC1CN(C(=O)N2CCC(C(=O)NCCc3ccc(Cl)cc3)CC2)c2ccccc2O1 (stereo not drawn) -45%
O=C1NCCN(Cc2ccc(F)cc2)C1=O 0.657%
Cc1ccc(NC(=O)Cn2cc(C(=O)C3CC3)c3ccccc32)cc1 -11.1%
COc1ccc(NC(=O)Cn2nnc(C(=O)Nc3ccc(F)c(Cl)c3)c2N)cc1OC -12.6%
Cn1c(SCc2ccc(F)cc2)nc2ccc(C(=O)NCc3ccc(Cl)cc3)cc21 -44.5%
COc1ccc(-c2noc(CN(C(=O)COc3cc(C)c(Br)c(C)c3)C(C)C)n2)cc1 -32.7%
CCOc1ccc(-c2nn(CC(=O)NC3CCCCC3)c3c2cnc2ccc(C)cc23)cc1 0.31%
CCC(C(=O)OCCOCCN(CC)CC)c1ccccc1 (stereo not drawn) -13.4%
CCCn1c2ccccc2c2cnn(CC(=O)NCCc3ccc(OCC)cc3)c(=O)c21 -30.4%
Cc1ccc(C(=O)NCCc2ccc(Cl)cc2)cc1-n1c(C)nc2cccnc21 -11.1%
COc1cc(-c2noc(-c3ccc(NCc4ccccc4)c([N+](=O)[O-])c3)n2)cc(OC)c1OC -5.32%
CCOc1ccc(NC(=O)CCNS(=O)(=O)c2ccc3c(c2)oc(=O)n3C)cc1 -6.23%
COc1ccc(NC(=O)Cn2nnc3sc4c(c3c2=O)CCC(C)C4)c(OC)c1 (stereo not drawn) -7.24%
COc1ccccc1CNC(=O)c1ccc2c(c1)N(Cc1cccc(C)c1)C(=O)c1ccccc1S2(=O)=O -12.5%
COc1ccc(Cl)cc1NC(=O)c1sc(-n2nc(C)c(Cc3ccccc3)c2C)nc1C 0.408%
Cc1ccc(C)c(Cn2c3ccccc3c3cnn(CC(=O)NCCC4=CCCCC4)c(=O)c32)c1 3.91%
CCn1c(=O)c2cc(C(=O)N(CCN(C)C)Cc3ccccc3)sc2c2ccccc21 -9.82%
Cc1cc(C)cc(NC(=O)CSc2nc3c(oc4ccccc43)c(=O)n2-c2ccccc2F)c1 -17.9%
COc1ccc2cc3cc(C(=O)NCc4ccc(C)cc4)oc3nc2c1 -9.97%
COc1ccc(OC)c(CCNC(=O)c2ccc3c(c2)N(Cc2ccc(C)cc2)CCS3)c1 -21.4%
COc1ccc(F)cc1S(=O)(=O)NCCc1c(C)[nH]c2c(Cl)cccc12 -20.7%
CCc1cccc(OCC(=O)Nc2ccc(S(=O)(=O)Nc3cc(C)nc(C)n3)cc2)c1 -16.3%
Cc1ccc(-c2nnc(Nc3ccc(O)cc3)c3ccccc23)cc1S(=O)(=O)N1CCN(C)CC1 -26.4%
COc1ccc(Nc2cc(C(=O)NCCc3ccc(C)cc3)c3ccccc3n2)c(OC)c1 -9.76%
CCOC(=O)N1CCC(NC(=O)c2c(C)nn(-c3ccc(C)cc3)c2-n2cccc2)CC1 -12.2%
CCOCCCNC(=O)C1CCN(c2nn3cc(-c4ccc(F)cc4)nc3s2)CC1 14.7%
